Laboratory results published in US20190062448A1, “ANTI-CD39 ANTIBODIES, COMPOSITIONS COMPRISING ANTI-CD39 ANTIBODIES AND METHODS OF USING ANTI-CD39 ANTIBODIES” (Tizona Therapeutics, priority 2017, published 2019).
Numbering of substitutions follows the chain as printed. Values belong to the molecule of their own block, whether it stands above or below them.

Tests used:
[1] = target: T1, CD39 on primary human monocytes (Homo sapiens, UniProt P49961); assay: Inhibition of ATPase activity on human monocytes (Malachite Green); format: cell-based; conditions: Example 14
T1 construct: Human monocytes were purified from leukopak using EasySep Human monocytes isolation kit; endogenous in cells; host or cells: primary human monocytes from leukopak
T1 sequence (P49961 1-510): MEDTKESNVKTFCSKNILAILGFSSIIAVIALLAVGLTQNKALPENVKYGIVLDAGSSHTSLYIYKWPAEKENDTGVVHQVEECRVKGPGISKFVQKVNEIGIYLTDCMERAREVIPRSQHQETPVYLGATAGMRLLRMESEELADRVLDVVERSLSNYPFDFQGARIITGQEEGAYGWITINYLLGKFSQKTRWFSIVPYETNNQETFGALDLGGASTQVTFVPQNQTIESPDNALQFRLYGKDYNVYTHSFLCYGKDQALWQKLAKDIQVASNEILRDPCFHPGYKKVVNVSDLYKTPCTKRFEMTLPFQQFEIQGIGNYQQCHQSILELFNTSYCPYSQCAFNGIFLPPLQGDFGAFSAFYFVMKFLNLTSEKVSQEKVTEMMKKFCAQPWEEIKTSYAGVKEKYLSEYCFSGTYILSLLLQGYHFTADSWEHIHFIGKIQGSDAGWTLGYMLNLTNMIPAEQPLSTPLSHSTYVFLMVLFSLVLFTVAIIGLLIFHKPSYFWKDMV
Experimental: FIG. 9 provides evaluation of inhibition of CD39 activity on primary human (a) and cyno (b) monocytes. Anti-CD39 antibodies (each number represents a unique antibody clone number as indicated in the figure) were titrated from 100 to 0.00013 nM and incubated with monocytes in presence of ATP. Phosphate release by CD39 processing of ATP was quantified using Malachite Green assay.
(§1) FIGS. 13 A-B show evaluation of antibodies for inhibition of CD39 activity on MEL-28 (FIG. 13A) and human monocytes (FIG. 13B) as compared to the anti-CD39 antibodies generated based on Innate/Orega (BY-40v9) and Igenica (9-8B) and variants thereof. Anti-CD39 antibodies were titrated as indicated and incubated in presence of ATP. Phosphate release by CD39 processing of ATP was quantified using Malachite Green assay.
Human monocytes were purified from leukopak using EasySep Human monocytes isolation kit ([…]). Cyno monocytes were isolated from whole cyno blood using NHP CD14 positive selection kit (Miltenyi). […] 50 μM ATP was added to the cells for 15 minutes at 37 C and supernatants were harvested and analyzed in Malachite Green Assay (R&D) for phosphate levels. […]
(§2) 3.5×10^4 MEL-28 cells/well were incubated with 100 nM down to 0.32 pM of monoclonal antibodies for 30 minutes. […] Supernate was evaluated for free phosphate (Pi) using the Malachite Green Phosphate Detection Kit (R&D Systems cat#DY996). […]

CD39 on MEL-28 cells = target: T2, CD39 on MEL-28 cells (Homo sapiens, UniProt P49961); assay: Short term ATPase assay on MEL-28 cells (Malachite Green phosphate readout); format: cell-based; conditions: Example 14; 100 nM down to 0.32 pM; 50 μM ATP
T2 construct: endogenous in cells; host or cells: MEL-28
T2 sequence (P49961 1-510): T1 sequence (P49961 1-510)
Experimental: FIGS. 4 A-B provide evaluation of antibody driven inhibition of ATP hydrolysis of CD39 on MEL-28 cells in a short term ATP assay. […] Inhibition is determined by decreased phosphate release (Pi). Data is representative of at least 10 independent experiments. Anti-CD39 antibodies (each antibody clone number is indicated in the figure) were titrated from 15 to 0.001 μg/ml. […] Three independent experiments were performed.
as §1, with “Anti-CD39 antibodies were titrated as indicated and incubated in presence of ATP.” left out
3.5×10^4 MEL-28 cells/well were washed with Tris buffer and incubated with serially diluted (100-0.00013 nM) antibody for 30 minutes at 37 degrees C. […] The supernatants were collected and analyzed in Malachite Green Assay (R&D) according to manufacturer's protocol. Phosphate released from CD39 processing of ATP was used as a readout of enzyme activity. […]
as §2

hCD39-ECD [2] = target: T3, hCD39-ECD (Homo sapiens, UniProt P49961); assay: Epitope binning / competition for hCD39-ECD binding by Bio-Layer Interferometry; conditions: for competition with antibody A1 for binding to hCD39 ECD: A1 immobilized, ECD captured, then competitor antibody
T3 sequence (P49961 38-478 limits assumed): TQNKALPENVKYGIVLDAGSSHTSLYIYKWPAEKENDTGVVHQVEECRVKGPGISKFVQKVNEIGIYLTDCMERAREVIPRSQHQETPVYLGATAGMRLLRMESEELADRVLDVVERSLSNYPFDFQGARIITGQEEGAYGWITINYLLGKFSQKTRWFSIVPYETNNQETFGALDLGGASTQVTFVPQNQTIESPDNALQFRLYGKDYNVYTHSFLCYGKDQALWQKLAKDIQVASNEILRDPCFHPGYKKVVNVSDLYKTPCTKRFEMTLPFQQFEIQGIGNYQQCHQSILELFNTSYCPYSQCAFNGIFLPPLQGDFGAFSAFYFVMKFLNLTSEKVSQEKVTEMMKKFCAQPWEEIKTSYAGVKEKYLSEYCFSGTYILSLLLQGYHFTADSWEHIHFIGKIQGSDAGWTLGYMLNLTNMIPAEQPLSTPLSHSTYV
Source text: A1 antibody was immobilized onto an Anti-Mouse IgG Fc Capture (AMC) biosensor (ForteBio). Association of hCD39-ECD was then monitored for 180 seconds via Bio-Layer Interferometry (BLI) using the Octet system (ForteBio), at which point the biosensor was dipped into competitor antibody and monitored for another 180 seconds.
The methods are the same as set forth above except that instead of A1, the representative antibody was immobilized using anti-human IgG Fc Capture (AHC) biosensor.
(§3) Also, an 18 hour incubation was used with the antibody or isotype control. Finally, an additional 30 second baseline dip in buffer between antigen capture and dipping into a second competitor antibody for 300 seconds was used.

hCD39-ECD [3] = target: T3, hCD39-ECD; assay: rhCD39-ECD ATPase inhibition (Malachite Green free phosphate); format: biochemical; set-up: purchased R&D Systems; conditions: 50 μg/ml antibody; 10 μM ATP; vs isotype or buffer controls
Experimental: 0.04-3.3 nM rhCD39-ECD (R&D Systems) was incubated with buffer, 50 μg/ml antibody or 100 μM POM-1 (Alpha Aesar) for 1 hr at 37° C. in assay buffer (25 mM Tris pH 7.5, 5 mM CaCl2) at which point ATP (Sigma) was spiked in to a final concentration of 10 μM, and the reaction further incubated for 30 min 37° C. Production of free phosphate (Pi) was subsequently measured using Malachite Green Phosphate Detection kit (R&D Systems).
as §3

[4] = target: T4, CD39 expressed on MEL-28 cells (Homo sapiens, UniProt P49961); assay: Cellular CD39 ATPase inhibition (Malachite Green), Example 15; format: cell-based; conditions: 10-25 μg/ml antibody; 50 μM ATP; vs isotype control
T4 construct: endogenous in cells; host or cells: MEL-28
T4 sequence (P49961 1-510): T1 sequence (P49961 1-510)
Experimental: (§4) Indicated cells were incubated in assay buffer with 10-25 μg/ml antibody, 100 μM POM-1 or 100 μM ARL for 30 min at 37° C. 5% CO2. ATP was added to a final concentration of 50 μM and the incubation continued for 15 min. Supernatant was evaluated for free phosphate (Pi) using the Malachite Green Phosphate Detection kit. Palivizumab is used as an isotype control and POM-1 and ARL are non-specific small molecule inhibitors of CD39.
as §3

[5] = target: T5, recombinant human CD39 extracellular domain (rhCD39-ECD-His) (Homo sapiens, UniProt P49961); assay: Binding kinetics to recombinant CD39 ECD by biolayer interferometry (Octet)
T5 construct: His (C); purchased R&D Systems
T5 sequence (P49961 38-478 limits assumed): T3 sequence (P49961 38-478 limits assumed)
Source text: FIG. 1 provides a table showing monovalent affinity of anti-huCD39 antibodies to recombinant human CD39 extracellular domain. The table provides binding kinetics of anti-CD39 antibodies interacting with soluble recombinant human CD39 (ENTDP1) extracellular domain (ECD) by biolayer interferometry (ForteBio Octet). Anti-CD39 antibodies were captured on an anti-human Fc sensor and exposed to recombinant human CD39 ECD at concentration ranging from 10-300 nanomolar. The kinetic data was globally fit with a simple 1:1 Langmuir binding model to yield on-rate (kon) and off-rate (koff) values. The equilibrium dissociation constants (KD) were calculated from the kon and koff values.
Binding kinetics were measured using the Octet Red96 system (ForteBio) at 25° C. in running buffer (1× Pall ForteBio Kinetics Buffer diluted into PBS or Tris pH 7.4). In brief, 1.25 mg/ml of unlabeled anti-hCD39 antibodies were immobilized onto anti-human Fc sensors. After a short baseline step in running buffer, the sensors were exposed to varying concentrations (10-300 nM) of rhCD39-ECD-His (R&D Systems) for the association step. Dissociation of the complex was monitored upon exposure of the sensors to running buffer once again. […] KD was calculated from the ratio of kd to ka.
PF=poor fit. […] The equilibrium dissociation constants (KD) were calculated from the kon and koff values.

[6] = target: T6, human CD39 on CHO CD39 cells (Homo sapiens, UniProt P49961); assay: Binding to CHO cells expressing human CD39 (flow cytometry)
T6 construct: expressed in transfected cells; host or cells: Chinese Hamster Ovary K1 (CHO)
T6 sequence (P49961 1-510): T1 sequence (P49961 1-510)
Experimental: Binding of anti-CD39 IgGs to Chinese Hamster Ovary K1 (CHO) CD39 cells. 100 nanomolar IgGs (each antibody is indicated as a unique clone number in the FIG.) were incubated at 25° C. for 30 minutes on ice in phosphate buffered saline (PBS) with parental CHO cells or CHO cells engineered to express either human or cynomolgus macaque (Macaca fascicularis) CD39 (CHO CD39 cells). Cells were then washed with ice cold PBS and incubated with a fluorescently labeled goat-anti-human IgG for 20 minutes on ice. Cells were washed and resuspended in ice cold PBS prior to analysis by flow cytrometry. Fold over background binding levels represent the ratio of median fluorescence intensity (MFI) values for anti-CD39 antibodies binding to CHO CD39 to MFI values for anti-CD39 antibodies binding to the parental CHO cells.

CD39 expressed on OAW42 = target: T7, CD39 expressed on OAW42 (Homo sapiens, UniProt P49961); assay: Cellular CD39 ATPase inhibition (Malachite Green), Example 15; format: cell-based; conditions: 10-25 μg/ml antibody; 50 μM ATP; vs isotype control
T7 construct: endogenous in cells; host or cells: OAW42
T7 sequence (P49961 1-510): T1 sequence (P49961 1-510)
Experimental: as §4

competition / binning with other anti-CD39 antibody bin groups for ECD binding (hCD39-ECD [2]): do not compete | competition with antibody A1 for binding to hCD39 ECD (hCD39-ECD [2]): do not compete
B1: 28347: anti-human CD39 antibody inhibiting soluble ECD and cellular CD39 (antibody, V domains shown)
VH: QVQLVQSGAEVKKPGSSVKVSCKASGGTFSSLAISWVRQAPGQGLEWMGGIIPIFGTANYAQKFQGRVTITADESTNTAYMELSSLRSEDTAVYYCARGGAKYASTYGMDVWGQGTTVTVSS
VL: DIVMTQSPDSLAVSLGERATINCKSSQSVLFSSNNKNYLAWYQQKPGQPPKLLIYWASTRESGVPDRFSGSGSGTDFTLTISSLQAEDVAVYYCQQYYLYPLTFGGGTKVEIK
modifications: Synthetic VH, 28347; Synthetic VL, 28347
enzymatic inhibition (free phosphate release) on primary human monocyte, short term assay [1]: able to inhibit ATPase activity at low nM concentrations | enzymatic inhibition (free phosphate release) on MEL-28 cell, short term assay (CD39 on MEL-28 cells): able to inhibit ATPase activity at low nM concentrations | inhibition of ATPase activity of soluble hCD39 ECD (μM Pi) (hCD39-ECD [3]): able to inhibit the hydrolysis of ATP by hCD39 ECD | inhibition of ATPase activity of CD39 expressed on MEL-28 cells [4]: inhibit the hydrolysis of CD39 expressed on MEL-28 cells

binding to soluble recombinant human CD39 ECD (in words) [5]: bind both soluble ECD and cellular CD39 | binding to cellular human CD39 (in words) [6]: bind both soluble ECD and cellular CD39 | competition with antibody A1 for binding to hCD39 ECD (hCD39-ECD [2]): does not block binding
B2: 27536: anti-hCD39 antibody binding ECD and cellular CD39, inhibits ATPase; own bin group with 28337 (antibody, V domains shown)
VH: QVQLVQSGAEVKKPGSSVKVSCKASGGTFSNYAISWVRQAPGQGLEWMGGIIPIFGTANYAQKFQGRVTITADESTSTAYMELSSLRSEDTAVYYCARDTLYSSGAYYGYNVWGQGTMVTVSS
VL: B1 VL with F31Y, Y97A, L99T, Y100F, L102P
modifications: Synthetic VH, 27536; Synthetic VL, 27536
inhibition of ATPase activity of CD39 expressed on OAW42 cells (CD39 expressed on OAW42): inhibit the hydrolysis of CD39 expressed on MEL-28 and OAW42 cells | competition / binning with other anti-CD39 antibody bin groups for ECD binding (hCD39-ECD [2]): do not compete with other inhibitors for CD39 binding | inhibition of ATPase activity of soluble hCD39 ECD (μM Pi) (hCD39-ECD [3]): able to inhibit the hydrolysis of ATP by hCD39 ECD | inhibition of ATPase activity of CD39 expressed on MEL-28 cells [4]: inhibit the hydrolysis of CD39 expressed on MEL-28 and OAW42 cells
